Measurements taken from PubChem BioAssay AID686979 (National Center for Advancing Translational Sciences (NCATS), 2013).
Out of some 420,000 compounds screened, about 50,000 (12%) were called active. The inconclusive results got no clear call from the source; some entries with a clear call stand among them for comparison. Calls follow the shape of the dose curve; as a rule, active = well fitted inhibition curve with a large enough effect; inconclusive = small, poorly fitted or top-dose-only effect; inactive = flat fitted curve, though single readings scatter. No potency is given beside an inconclusive call; the fits are too rough.

Assay: qHTS for Inhibitors of human tyrosyl-DNA phosphodiesterase 1 (TDP1): qHTS in cells in presence of CPT; also: nearly all actives have a fitted effect of over 55% in size
Settings: chicken DT40 Tdp1-/-;hTDP1 cells + 20 nM CPT, ATP luminescence, 48 h; activity change, negative = growth inhibition: at 46.2 µM (top of the series) unless noted
Method in brief: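 Chicken DT40 Tdp1-/- cells stably complemented with human TDP1 were seeded at 400 cells/well in medium containing 20 nM camptothecin, exposed to pin-transferred compounds, and grown at 37 °C for at least 48 hr. Viability was read as ATP luminescence.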
% is scaled to controls: 0 for no effect and ±100 for the full control effect; potency is read from the fitted curve at half-maximal effect; tags tell the direction and shape of the fitted curve.

Row | SMILES | Potency | activity change, negative = growth inhibition
1 | CCOc1ccccc1N(CC(=O)N/N=C(\C)c1cccc(Br)c1)S(C)(=O)=O | inconclusive [inhibitor, single point] | 
2 | CC(C)NC(=O)Cn1nnc(-c2cccc(NC(=O)c3ccccc3F)c2)n1 | inconclusive [inhibitor, single point] | 
3 | CS(=O)(=O)c1ccc(C(=O)OCC(=O)Nc2cc(C(F)(F)F)ccc2Cl)cc1[N+](=O)[O-] | active: 11.2 µM | 
4 | Cc1ccc(C(=O)NCC2CCCN2S(=O)(=O)c2cccs2)cc1C (stereo unspecified) | inconclusive [inhibitor, single point] | 
5 | Cc1ccc2nc(Nc3nc(CSc4nnc(C)s4)cc(=O)[nH]3)nc(C)c2c1 | inconclusive [inhibitor, single point] | 
6 | O=C1N(Cc2cccc(Cl)c2)C[C@@H]2C[C@@H](c3cccn3-c3cccnc3)N3CCC[C@@]123 | inconclusive [inhibitor, single point] | 
7 | CC(=O)C[C@@H](O)CC(=O)[C@H]1OC(=O)CCCCCCc2ccccc21 |  | inconclusive: -12.3% [inhibitor]
8 | Cn1cnnc1SCC(=O)Nc1ccc(Cl)c(S(=O)(=O)N2CCOCC2)c1 | inactive | 
9 | C=CCn1c(C)cc(C2=NNC(=NCC)SC2)c1C | active: 16.4 µM | 
10 | CCC1CCCCN1CC(=O)c1c(C)[nH]c2ccc(OC)cc12 (stereo unspecified) | inactive | 
11 | CC(=O)Nc1ccc(Nc2nc(C)c([N+](=O)[O-])c(Nc3ccc(NC(C)=O)cc3)n2)cc1 | inconclusive [inhibitor, single point] | 
12 | CN(C)S(=O)(=O)Oc1cccc(C(=O)Nc2ccccc2Cl)c1 |  | inconclusive: -36.1% [inhibitor]
13 | CC1(C(=O)NCc2ccc(F)c(F)c2)Cc2c(-c3cccc(C(N)=O)c3)ccnc2O1 (stereo unspecified) | inconclusive [inhibitor, single point] | 
14 | COc1ccc(OC)c(CNC(=O)CN(c2ccc(C)cc2)S(=O)(=O)N(C)C)c1 | inactive | 
15 | CCN(CC)c1ncnc2c1ncn2Cc1c(Cl)cccc1Cl | inconclusive [inhibitor, single point] | 
16 | Nc1ccc(S(=O)(=O)Nc2nccc(/C=C/c3cccc(Br)c3)n2)cc1 | inactive | 
17 | COc1ccc(S(=O)(=O)NC2CCCCC2)cc1C | inactive | 
18 | COc1ccc2c(Sc3ccccc3)c(C(=O)NCCc3ccc(Cl)cc3)[nH]c2c1 | inconclusive [inhibitor, single point] | 
19 | O=C(NNC(=S)NC1CCCCC1)c1ccccc1O | inactive | 
20 | O=C1CC(=C(c2ccccc2)c2ccccc2)C(=O)N1CCCCN1CCN(c2cccc(Cl)c2)CC1 | active: 14.6 µM | 
21 | CCc1cc2c(NCCN3CCCCC3)ncnc2s1 | inactive | 
22 | O=C(Nc1cccc(F)c1)Nc1ccc(Cl)cn1 | inconclusive [inhibitor, partial curve] | 
23 | O=C(CN1C(=O)COc2ccc(S(=O)(=O)N3CCCC3)cc21)N1CCN(c2ccccc2)CC1 | inactive | 
24 | COc1ccc(C2/C=C\CC(OCc3ccccc3)CC(=O)N2Cc2cccc(F)c2)cc1 (stereo unspecified) | active: 18.4 µM | 

Row | SMILES | Potency | activity change, negative = growth inhibition
25 | COC(=O)c1c(-c2ccc(Br)cc2)noc1N | inactive | 
26 | Cc1c(Cl)ccc2c(C(O)CBr)cc(-c3ccccc3)nc12 (stereo unspecified) | inconclusive [inhibitor, single point] | 
27 | O=C1CC(c2ccccc2)Cc2nc(N3CCc4ccccc4C3)ncc21 (stereo unspecified) | inconclusive [inhibitor, partial curve] | 
28 | Cc1ccc(S(=O)(=O)N2CCN(CC(=O)Nc3ccc([N+](=O)[O-])cc3)CC2)cc1C | inconclusive [inhibitor, single point] | 
29 | COc1ccc(CNC(=O)C[C@H]2C[C@H](C(=O)N3CCCCC3)[C@@]3(C)c4[nH]c5cc(-c6ccco6)ccc5c4CCN3C2=O)cc1OC | inconclusive [inhibitor, single point] | 
30 | O=C(c1ccccc1)C(CCC(CN1CCOCC1)C(=O)c1ccccc1)CN1CCOCC1 (stereo unspecified) | active: 0.731 µM | 
31 | CCOC(=O)N1CCN(C(=O)CCC(=O)c2ccc(OCC)cc2)CC1 | inactive | 
32 | CCOC(=O)c1c(C)[nH]c(C(=O)N/N=C/c2cccc(OC)c2)c1C | inconclusive [inhibitor, single point] | 
33 | COc1cc(OC)cc(-n2nnnc2SCC(=O)N2CCCc3ccccc32)c1 | inconclusive [inhibitor, single point] | 
34 | CCn1c(-c2cc(Br)cc(OC)c2O)nc2cc(S(=O)(=O)N(C)C)ccc21 |  | inconclusive: -33.1% [inhibitor]
35 | Cc1ccc(CNC(=O)C2CC(c3ccccc3F)=NO2)cc1 (stereo unspecified) | inconclusive [inhibitor, single point] | 
36 | CCc1ccc(NC(=O)c2sc3ncnc(N(C)C4CCCCC4)c3c2C)cc1 | active: 18.4 µM | 
37 | Cc1ccc(C)c(S(=O)(=O)N2CCCC2CNC(=O)C(=O)NCCc2ccccc2)c1 (stereo unspecified) | inconclusive [inhibitor, single point] | 
38 | O=C1CCN(CCc2ccccc2)CCN1CCO | inactive | 
39 | COc1ccc(NC(=O)/C(C#N)=C\c2cc(OC)c(OCc3ccc(C(=O)O)cc3)cc2Br)cc1 | inactive | 
40 | O=C(NCc1ccc2c(c1)CCN2C(=O)c1ccccc1)c1cc2ccccc2[nH]1 | inconclusive [inhibitor, single point] | 
41 | Cc1ccc(S(=O)(=O)NC(=O)C2(C)CCN2C(=O)C2CC2)cc1 (stereo unspecified) | inactive | 
42 | S=C(Nc1ccc(Cl)cc1)NC1CC2CCCC(C1)N2C1CC1 (stereo unspecified) | inconclusive [inhibitor, single point] | 
43 | CCc1ccc(C(=O)CN2C(=O)C(C)N(c3ccc(C)cc3)C2=O)cc1 (stereo unspecified) | inconclusive [inhibitor, single point] | 
44 | Cc1ccc(S(=O)(=O)N2CCCCC2)cc1NC(=O)CCOc1ccccc1 | inconclusive [inhibitor, single point] | 
45 | COC(=O)N1CCCCC1c1cc(C(=O)Nc2cccc3c2CCCC3)no1 (stereo unspecified) | inconclusive [inhibitor, full curve, poor fit] | 
46 | CC1CC2(C)Oc3ccccc3C3OCC1(COC(=O)Nc1ccccc1)C(C)C32 (stereo unspecified) | inconclusive [inhibitor, single point] | 
47 | Cc1cc(Cl)c(S(N)(=O)=O)cc1OCC(=O)NC1CCCCC1 | inactive | 
48 | CCOc1ccc(NC(=O)CCN2CCN(S(=O)(=O)c3ccc(F)cc3)CC2)cc1 |  | inconclusive: -31.7% [inhibitor]

Row | SMILES | Potency | activity change, negative = growth inhibition
49 | O=C(Nc1cccc2ccccc12)c1ccc([N+](=O)[O-])o1 | active: 14.6 µM | 
50 | CCN=C(N/N=C/c1ccc([N+](=O)[O-])cc1)SC | inconclusive [inhibitor, partial curve] | 
51 | CN(c1ccccc1)c1ncnc2c1ncn2C | inactive | 
52 | O=C(NC1CCCCC1)c1cnn2c1NC(=C1CC1)C=C2C(F)F | inconclusive [inhibitor, single point] | 
53 | CCOC(=O)N1CCN(c2nc(C)cc(C(F)(F)F)n2)CC1 |  | inconclusive: -22.9% [inhibitor]
54 | CN(CCc1ccccc1)C(=O)c1cccc(NC(=O)Cc2cccc(NC(=O)C3CCN(C(=O)C4CCC4)CC3)c2)c1 | inconclusive [inhibitor, single point] | 
55 | CC(=O)C1=C(c2ccc(C)cc2)N(C(C)=O)n2c(nnc2C2CCCCC2)S1 | inconclusive [inhibitor, single point] | 
56 | COc1ccc(CNC(=O)Nc2ccc3c(c2)N(C)C(=O)c2ccccc2S3)cc1 | inconclusive [inhibitor, single point] | 
57 | O=C(CCl)c1ccc(Cc2ncc(C(F)(F)F)cc2Cl)s1 | active: 3.26 µM | 
58 | CCc1nc2c(OCCOc3ccc(F)cc3)cccn2c1N(C)C(=O)C(C)C | inconclusive [inhibitor, single point] | 
59 | COc1ccc(-c2csc(Cc3nc(O)cs3)n2)cc1 | active: 18.4 µM | 
60 | O=C(Cn1cc(COc2c(F)c(F)c(Br)c(F)c2F)nn1)c1ccc(O)cc1 | inconclusive [inhibitor, single point] | 
61 | C=CC1=C(C)C2=NC1=CC1=NC(=CC3=NC(=CC4=NC(=C2)C(C)=C4CCC(=O)O)C(CCC(=O)O)=C3C)C(C=C)=C1C.[Zn] | inconclusive [inhibitor, single point] | 
62 | COc1ccc(OCC(=O)NCCc2c[nH]c3ccccc23)cc1 | inactive | 
63 | Cc1ccc2nc(SC(C)C(=O)Nc3cccc([N+](=O)[O-])c3)[nH]c2c1 (stereo unspecified) | inconclusive [inhibitor, single point] | 
64 | O=C(NCc1ccco1)C12CC3CC(CC(C3)C1)C2 | inactive | 
65 | COc1cccc(CN2C(=O)c3ccccc3Sc3ccc(C(=O)N(C)Cc4ccccc4)cc32)c1 | inconclusive [inhibitor, single point] | 
66 | COc1ccc(-c2nnc(SCc3cc(=O)c4cc(C)cc(C)c4[nH]3)n2C)cc1 | active: 23.1 µM | 
67 | COc1cnc(-c2ccccn2)nc1Oc1ccccc1 | active: 0.461 µM | 
68 | CCCCNC(=O)CSc1nc2ccccc2nc1Cc1ccc(C)cc1 | inactive | 
69 | COc1ccccc1NC(=O)c1cc2ccc3cccnc3c2[nH]1 | active: 3.66 µM | 
70 | Nc1ccccc1S(=O)(=O)c1ccccc1N | inconclusive [inhibitor, full curve, poor fit] | 
71 | Clc1ccsc1-c1csc(-c2cccnc2)n1 | inconclusive [inhibitor, single point] | 
